Source: paper PMC6919601, “Identification of Plasmodium dipeptidyl aminopeptidase allosteric inhibitors by high throughput screening” (PLoS ONE, 2019)
Several values for one entry are separate records, joined by “and”; a condition that tells them apart may be missing. Equal entries are not always repeated. Among all 110,000 compounds or so, about 230 (0.21%) showed an effect of 50% or more. The list shows a part of the results.

target: DPAP1 (Plasmodium falciparum, UniProt Q8IIJ9); assay: primary screen, percent inhibition; read by cleavage of a fluorogenic dipeptide substrate; higher = more effect of the substance; design: species or system P. falciparum D10 trophozoite lysates; single well
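Also: 30 min substrate incubation versus DMSO and 10 µM JCP410 controls.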

Chain of DPAP1 (Q8IIJ9 whole entry, looked up): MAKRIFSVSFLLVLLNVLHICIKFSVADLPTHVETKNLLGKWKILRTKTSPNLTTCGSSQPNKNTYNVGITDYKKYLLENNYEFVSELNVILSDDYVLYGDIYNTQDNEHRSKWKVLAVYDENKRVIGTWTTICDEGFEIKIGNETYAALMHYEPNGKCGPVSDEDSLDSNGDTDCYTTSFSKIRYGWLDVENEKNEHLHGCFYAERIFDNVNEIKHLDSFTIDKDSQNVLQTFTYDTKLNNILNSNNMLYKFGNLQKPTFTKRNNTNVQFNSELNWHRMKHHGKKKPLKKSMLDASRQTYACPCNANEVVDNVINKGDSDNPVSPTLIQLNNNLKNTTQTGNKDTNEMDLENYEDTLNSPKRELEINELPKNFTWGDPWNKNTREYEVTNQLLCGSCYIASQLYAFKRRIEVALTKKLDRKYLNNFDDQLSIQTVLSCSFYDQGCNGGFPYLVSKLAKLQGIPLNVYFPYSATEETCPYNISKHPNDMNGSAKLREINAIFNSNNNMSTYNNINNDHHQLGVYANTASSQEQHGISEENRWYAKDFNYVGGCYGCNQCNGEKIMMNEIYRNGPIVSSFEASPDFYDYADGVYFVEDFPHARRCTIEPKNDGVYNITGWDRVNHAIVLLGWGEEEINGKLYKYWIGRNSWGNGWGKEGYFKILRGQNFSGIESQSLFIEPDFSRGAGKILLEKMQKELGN

| SMILES | % Inhibition @ 10 uM |
| --- | --- |
| Cc1c(C(=O)/C=C/c2ccccc2)c2cc(O)ccc2n1C | 1.38% |
| COc1cccc(/C=N/CCNC(=O)c2nonc2N)c1O | 1.63% |
| O=C(Nc1ccc(F)cc1F)C1CC2CCC1C2 (centres unmarked) | 0.177% |
| CCCOc1ccc2oc(=O)c3c(c2c1)CCCN3C(=O)CN1CCN(C(=O)OCC)CC1 | 13.3% |
| CN(C)c1nc(SCC(=O)Nc2ccccc2)nc(N2CCOCC2)n1 | -4.39% |
| CCOC(=O)c1c(C)[nH]c(C)c1S(=O)(=O)NCc1ccccc1Cl | -0.884% |
| CC(C)C[C@H](NC(=O)OCc1ccccc1)C(=O)NC(C#N)c1csc2ccccc12 (some centres unmarked) | 1.71% |
| CC(=O)C1=C(C)NC(=O)NC1c1cccc2c1OCO2 (centres unmarked) | -0.216% |
| CC(C)(C)c1ccc(/C=C2\NC(=O)N(Cc3ccc(Cl)cc3)C2=O)cc1 | -3.06% |
| O=[N+]([O-])c1cccc(CNC23CC4CC(CC(C4)C2)C3)c1 | 1.43% |
| CN(C)CCCN(C(=O)c1ccc2c(c1)OCCO2)c1nc2ccc(Cl)cc2s1 | -1.6% |
| Cc1ccc(C(=O)NCCCCNC(=O)c2ccc(C)o2)o1 | 0.795% |
| CCOC(=O)c1cc(S(=O)(=O)NCCCN(C)Cc2ccccc2)cn1C | -2.84% |
| Oc1ccccc1OCc1nc2ccccc2s1 | -1.69% |
| COc1ccccc1OCC(=O)Nc1c(C(=O)c2ccccc2)oc2ccccc12 | 5.5% |
| CC(=O)N1[C@@H](c2ccc(Br)cc2)SC[C@H]1C(=O)O | -0.744% |
| CC(=O)C1=C(O)C(=O)N(CCN2C(=O)C(O)=C(C(C)=O)C2c2ccccc2)C1c1ccccc1 (centres unmarked) | -5.6% |
| CSc1nc2ccc(Nc3nc(N4CCOCC4)nc(N4CCOCC4)n3)cc2s1 | -0.725% |
| Oc1ccc(Oc2ccccc2)cc1C(O)(c1nc2ccccc2[nH]1)C(F)(F)F (centres unmarked) | -12.2% |
| CNC(=O)C1CCCN(c2nn3cc(-c4ccc(F)cc4)nc3s2)C1 (centres unmarked) | -1.68% |
| Cc1ccc(-n2nnc(-c3ccc(C(C)(C)C)cc3)n2)cc1 | -5.33% |
| COc1ccccc1CN1CCN(Cc2cc(OC)c(OC)c(OC)c2)CC1 | -17.9% |

| SMILES | % Inhibition @ 10 uM |
| --- | --- |
| CCOc1ccc(NC(=O)CN2C(=O)S/C(=C/c3cccn3C)C2=O)cc1 | 2.36% |
| CC(C)CCN1CC(C(=O)NCc2ccccc2)CC1=O (centres unmarked) | 3.79% |
| CC(=O)Nc1ccc2oc(-c3ccccc3Br)nc2c1 | -1.99% |
| CCN1CCC(NCC(C)c2ccccc2)CC1 (centres unmarked) | 3.68% |
| CC1=C(C(=O)N2CCCCC2)C(c2cccs2)C2=C(O)CCCC2=N1 (centres unmarked) | -1.48% |
| CCc1[nH]nc2c1C1(C(=O)N(Cc3ccccc3)c3ccccc31)C(C#N)=C(N)O2 (centres unmarked) | -2.24% |
| CCCCS(=O)(=O)CC(O)COc1ccccc1 (centres unmarked) | 1.74% |
| CCc1ccc(C23OC(=O)C(C)(C)C2OC(=O)C3(C)C)cc1 (centres unmarked) | 0.408% |
| O=C(Nc1nccs1)C1CC1(c1ccccc1)c1ccccc1 (centres unmarked) | 4.67% |
| Cc1ccc(C)c(S(=O)(=O)NCC(=O)Nc2sc3c(c2C(N)=O)CCCCC3)c1 | 2.63% |
| C=CCSc1ncccc1C(=O)O | 10% |
| Cc1sc(NC(=O)c2ccc(F)cc2)c(CN2CCCC2)c1C | -2.63% |
| Cc1cccc(C(=O)Nc2ccc(NC(=O)c3ccc(Br)o3)cc2)c1 | 0.992% |
| Cc1ccc(Cn2c(CN3CCC(C)CC3)nc3c2c(=O)n(C)c(=O)n3C)cc1 | 2.9% |
| CCOc1ccc2nc(NC(=O)Cn3ncc4c5cc(C)ccc5nc-4c3O)sc2c1 | -3.64% |
| COc1ccc(C)cc1N(CC(=O)N1CCC(C)CC1)S(C)(=O)=O | -11% |
| COc1ccc(-n2nnc(-c3nc(-c4ccc(C)cc4)no3)c2N)cc1Cl | -5.65% |
| O=C(NCCCN1CCOCC1)c1ccc2nc(-c3ccc(F)cc3)c(-c3ccc(F)cc3)nc2c1 | 5.17% |
| CC1CCCN(C(=O)Cn2ncc3c(=O)oc4ccccc4c32)C1 (centres unmarked) | -2.83% |
| CCOC(=O)c1ccc(NC(=O)c2cccnc2)cc1 | 1.13% |
| Cc1cc(C(F)(F)F)c(C#N)c(SCC(N)=O)n1 | 18.9% |
| O=C(Nc1ccc([N+](=O)[O-])cc1)c1ccc(Cl)cc1 | -3.66% |

| SMILES | % Inhibition @ 10 uM |
| --- | --- |
| NC(=O)C1CCN(Cc2c(F)cccc2Cl)CC1 | -3.8% |
| CCc1cc2c(cc3c(=O)n(CC(=O)NC4CCCC(C)C4C)nc(CC)n32)s1 (centres unmarked) | -1.7% |
| Cc1ccc(C(=O)NC=C(C#N)C#N)cc1 | -8.51% |
| CCOC(=O)c1c(S(=O)(=O)NCCCc2ccccc2)c(C)n(C)c1C | -3.94% |
| COc1cc(/C=C/C(=O)N2CCOCC2)ccc1OCc1ccccc1 | 3.54% |
| CC1=CC2=NC(=O)/C(=C\c3ccc(-c4ccccc4)o3)C(=N)N2O1 | -1.43% |
| COc1ncnc2c1sc1nc3c(cc12)COC(C)(C)C3 | 1.01% |
| N=C1/C(=C/c2ccc(O)cc2)C(=O)N=C2SC(C3CCCCC3)=NN12 | 3.43% |
| CCCCCCc1ccc(C(=O)Nc2nnc(CC)s2)cc1 | -0.615% |
| Cc1ccc(NC(=O)c2cccc(C(=O)Nc3ccc(C)c(Cl)c3)c2)cc1Cl | 3.47% |
| CCCc1n(CC(O)COc2cccc(C)c2)c2ccccc2[n+]1C (centres unmarked) | -2.87% |
| CN1C(=O)NC(=O)/C(=C/c2ccc(-c3ccc(C(=O)O)cc3)o2)C1=O | 7.67% and 2.94% |
| C=CCSc1nc2c(c(=O)n(C)c(=O)n2C)n1Cc1ccccc1 | -3.69% |
| COc1cc(NC2=CC(=O)CC(C)(C)C2)cc(OC)c1OC | -1.37% |
| CCN1CCN(C(=O)C(C)n2ncn3cccc3c2=O)CC1 (centres unmarked) | -0.698% |
| CC(NC(=O)CCc1c[nH]c2ccccc12)c1ccccc1 (centres unmarked) | -3.37% |
| O=C(Cc1coc2ccc3ccccc3c12)NC1CCCCC1 | 3.66% |
| CN1CN(C)c2cccc3cccc1c23 | -0.941% |
| O=[N+]([O-])c1ccc(N2CCCC2)cc1Sc1cccc2cccnc12 | -6.88% |
| Fc1ccccc1OCCCCCN1CCOCC1 | 3% |
| Cc1ccc(CN2CCCN(C)CC2)c(C)c1 | -1.93% |
